# Experimental data taken from PubChem BioAssay AID1460 (National Center for Advancing Translational Sciences (NCATS), 2008).
# “And” between values parts separate entries of the source, which are not always exact repeats. Equal values may be shown once. The whole screen tested about 270,000 compounds, of which about 5,800 (2.1%) were called active. The shares of active, inactive and inconclusive entries below differ from those in the screen. The call rests on the fitted dose curve; in most records, active means well fitted inhibition curve with a large enough effect; inconclusive means small, poorly fitted or top-dose-only effect; inactive means flat fitted curve, though single readings scatter. A potency beside an inconclusive call is a rough fit, not a confirmed value.
# Target: Microtubule-associated protein tau (Homo sapiens) (UniProt P10636)
# Chain of UniProt P10636 (P10636 whole entry, looked up): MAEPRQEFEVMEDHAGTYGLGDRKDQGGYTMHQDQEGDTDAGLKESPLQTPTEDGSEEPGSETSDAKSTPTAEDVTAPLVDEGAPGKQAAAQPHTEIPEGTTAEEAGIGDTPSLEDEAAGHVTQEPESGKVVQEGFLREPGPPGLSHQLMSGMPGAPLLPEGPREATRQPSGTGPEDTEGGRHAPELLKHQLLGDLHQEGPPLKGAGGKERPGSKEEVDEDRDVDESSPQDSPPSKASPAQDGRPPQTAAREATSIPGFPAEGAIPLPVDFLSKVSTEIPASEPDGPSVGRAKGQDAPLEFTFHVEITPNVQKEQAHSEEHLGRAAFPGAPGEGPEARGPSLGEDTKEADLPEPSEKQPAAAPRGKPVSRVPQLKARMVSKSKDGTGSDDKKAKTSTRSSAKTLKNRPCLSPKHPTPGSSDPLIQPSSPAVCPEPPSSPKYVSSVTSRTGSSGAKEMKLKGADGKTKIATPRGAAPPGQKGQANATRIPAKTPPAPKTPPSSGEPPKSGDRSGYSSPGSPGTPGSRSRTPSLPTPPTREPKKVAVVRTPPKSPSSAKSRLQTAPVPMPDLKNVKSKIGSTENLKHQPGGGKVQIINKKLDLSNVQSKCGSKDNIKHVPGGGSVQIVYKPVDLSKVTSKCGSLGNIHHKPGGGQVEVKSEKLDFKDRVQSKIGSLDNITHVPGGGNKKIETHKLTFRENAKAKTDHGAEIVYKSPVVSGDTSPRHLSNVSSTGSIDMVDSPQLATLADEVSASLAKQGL
# Assay: qHTS for Inhibitors of Tau Fibril Formation, Thioflavin T Binding; further: nearly all actives have a fitted effect of over 55% in size
# Details: recombinant tau K18 P301L (four-repeat tau fragment), heparin-induced fibrillization, ThT fluorescence; series mostly up to 57.4 µM; activity, negative = inhibition: at the top concentration
# In short: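 Recombinant human tau K18 fragment […] carrying P301L, 15 uM unlabeled plus 0.24 uM Alexa 594-labeled, was fibrillized with 20 uM heparin in 100 mM sodium acetate pH 7 for 6 hr at 37 C; 30 uM ThT fluorescence read after 1 hr.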
# On the % scale 0 is the no-effect control and ±100 the full control effect; potency means the concentration at half of the fitted maximal effect; tags describe the fitted curve by direction and shape.
SMILES,Potency,"activity, negative = inhibition"
CC(C)(C)C(=O)Nc1cccc(C(=O)OCc2cc(=O)n3nc(C4CCCCC4)sc3n2)c1,"inconclusive: 0.282 µM [inhibitor, full curve]",
COc1ccccc1CC(=O)N1CCN(c2cccc(C(F)(F)F)c2)CC1,"inconclusive: 8.91 µM [inhibitor, full curve, poor fit]",
N#C/C(=C\c1ccc(-c2cc(Cl)ccc2Cl)o1)C(=O)Nc1ccccc1C(=O)O,active: 7.08 µM,
O=C(Nc1cccc(S(=O)(=O)NC2=NCCC2)c1)c1cc(-c2ccco2)nc2ccccc12,"inconclusive: 39.8 µM [inhibitor, single point]",
CCOC(=O)c1c(NC(=O)COc2ccc(F)cc2)sc2c1CCC(C)C2 (stereo not drawn),"inconclusive: 12.6 µM [inhibitor, partial curve, poor fit]",
COc1ccc(Nc2ncnc3sc(-c4ccccc4)cc23)cc1OC,"inconclusive: 12.6 µM [inhibitor, partial curve]",
CC1CCN(Cc2c(C#N)c3ccccc3n2C)CC1,,inactive: -10.3%
CCC(=O)N1CCc2cc(Br)cc(S(=O)(=O)NCCc3ccccc3)c21,,inactive: -9.33%
Cc1nn(-c2ccccc2)c2c1C(c1ccco1)C(C#N)=C(N)O2 (stereo not drawn),"inconclusive: 25.1 µM [inhibitor, partial curve]",
CCCCC[C@H](O)/C=C/[C@H]1[C@H](O)CC(O)[C@@H]1C/C=C\CCCC(=O)O (stereo partly drawn),,inactive: -3.73%
CCOC(=O)C(=Cc1ccc(-n2ccnc2)cc1)C(=O)OCC,"inconclusive: 20 µM [inhibitor, partial curve]",
CC1CN(C(=S)c2cccc([N+](=O)[O-])c2)CC(C)O1 (stereo not drawn),,inactive: -8.89%
COc1ccc(-n2c(Cc3cccn3C)nnc2SCC(=O)Nc2ccc(Cl)cc2)cc1,,inactive: -4.7%
COc1ccc(NC(=O)CC2Nc3ccccc3NC2=O)c([N+](=O)[O-])c1 (stereo not drawn),"inconclusive: 7.08 µM [inhibitor, partial curve]",
Cc1cc(C)c2cc(CN(Cc3ccco3)C(=O)NCc3ccccc3)c(=O)[nH]c2c1,"inconclusive: 39.8 µM [inhibitor, single point]",
Cc1ccc(-c2[nH]nc3c2C(c2ccoc2)C(C#N)=C(N)O3)cc1C (stereo not drawn),active: 31.6 µM,
CC(=O)Oc1ccc(C(=O)OCC(=O)c2c(N)n(C)c(=O)n(C)c2=O)cc1OC(C)=O,"inconclusive: 39.8 µM [inhibitor, single point]",
O=C(CSc1nnc(-c2ccncc2)n1Cc1ccco1)N1c2ccccc2Sc2ccc(Cl)cc21,"inconclusive: 20 µM [inhibitor, single point]",
Cc1cc(=O)n(-c2ccc(C(=O)O)cc2)[nH]1,"inconclusive: 2.82 µM [inhibitor, full curve, poor fit]",
C/C(=N\NC(=O)c1ccc([N+](=O)[O-])cc1)c1c(O)cc(C)oc1=O,active: 4.47 µM,
CCOc1ccc(Oc2ccc(C(F)(F)F)cc2N)cc1,"inconclusive: 14.1 µM [inhibitor, partial curve, poor fit]",
C/C(CC(C)C)=N/Nc1ccc([N+](=O)[O-])cc1[N+](=O)[O-],"inconclusive: 28.2 µM [inhibitor, partial curve, poor fit]",
COc1ccc(C[C@@H]2CN3C(=NC[C@@H]3Cc3ccc(O)cc3)N2C[C@H](C)NC(=O)CCC2CCCCC2)cc1,,inactive: -6.55%

SMILES,Potency,"activity, negative = inhibition"
O=C1C(Cl)=C(N2CCCCC2)C(=O)N1c1ccccc1Cl,active: 14.1 µM,
Cc1ccc2cccc(NC(=O)C(C)(C)Oc3ccc(Br)cc3)c2n1,,inactive: -12.7%
CCCS(=O)(=O)Nc1cc2c(cc1NCc1ccccc1)n(C)c(=O)n2C,"inconclusive: 15.8 µM [inhibitor, partial curve]",
CN(Cc1ccccc1)C(=O)CSc1cc(=O)n(C)c2ccccc12,,inactive: 4.12%
O=C(Nc1cc(Cl)ccc1O)c1cc2n(n1)C(C(F)(F)F)CC(c1ccc3c(c1)OCO3)N2 (stereo not drawn),,inactive: -14.6%
Cc1cccc(-n2[nH]c(C)c(C=Nc3ccc4[nH]c(=O)[nH]c4c3)c2=O)c1,"inconclusive: 2.82 µM [inhibitor, partial curve, poor fit]",
Nc1ccccc1NC1CCCCC1,active: 22.4 µM,
CCCC(=O)Nc1nc(-c2ccc3c(c2)OCCO3)cs1,"inconclusive: 0.0251 µM [inhibitor, full curve, poor fit]",
CCN1C(=O)/C(=C2/Sc3ccccc3N2CC)S/C1=N\c1ncn[nH]1,"inconclusive: 15.8 µM [inhibitor, partial curve]",
CCOC(=O)C1(Cc2ccc(Cl)cc2)CCN(C(=O)c2sc(C)nc2C)CC1,,inactive: 0.946%
Cc1ccc(-c2nc3s/c(=C\c4ccco4)c(=O)n3n2)cc1,"inconclusive: 4.47 µM [inhibitor, full curve]",
CCc1ccc(C(=O)Nc2ccc3nn(-c4ccc(C)c(Cl)c4)nc3c2)cc1,"inconclusive: 2.24 µM [inhibitor, partial curve, poor fit]",
COc1cc(/C=C2\SC(=S)NC2=O)ccc1OS(=O)(=O)c1ccccc1,active: 15.8 µM,
Cc1cc(C(=O)OCC(=O)N2CCN(c3ccccc3)CC2)c2ccccc2n1,"inconclusive: 6.31 µM [inhibitor, partial curve]",
Cc1cccc(-n2c(O)c(C=Nc3ccc(O)cc3)c3ccccc3c2=O)n1,"inconclusive: 22.4 µM [inhibitor, single point]",
Cc1cc(/C=C2/SC(=O)N(CC(=O)N3CCCC3)C2=O)ccc1N1CCOCC1,"inconclusive: 14.1 µM [inhibitor, partial curve]",
COc1cccc(C(=O)c2cn(CC(=O)Nc3cccc(C)c3C)c3nc(C)ccc3c2=O)c1,"inconclusive: 39.8 µM [inhibitor, single point]",
Cc1ccc(C)c(N2CCN(Cc3nnc(-c4ccccc4)o3)CC2)c1,"inconclusive: 15.8 µM [inhibitor, single point]",
CCCn1c(C)cc(C(=O)COC(=O)c2c(C)nn(-c3ccccc3)c2C)c1C,"inconclusive: 17.8 µM [inhibitor, partial curve]",
CCOC(=O)Cn1c(=O)oc2cc(S(=O)(=O)Nc3ccc(N(CC)CC)cc3C)ccc21,"inconclusive: 28.2 µM [inhibitor, partial curve]",
COc1ccc(-n2c(Cn3nnc4ccccc43)n[nH]c2=S)cc1,,inactive: 2.57%
CCOC(=O)CSc1nc2ccc(NC(=O)c3ccccc3)cc2s1,,inactive: -14.4%
Fc1ccc2c(c1)NC(c1ccncc1)=NC(c1cccs1)=N2,"inconclusive: 17.8 µM [inhibitor, partial curve]",

SMILES,Potency,"activity, negative = inhibition"
COc1ccc(NC(=O)C2CC(=O)n3ncnc3N2)cc1 (stereo not drawn),,inactive: -6.56%
Cc1oc(-c2nc3ccccc3n2C)cc1C(=O)c1ccccc1,"inconclusive: 31.6 µM [inhibitor, partial curve]",
COc1ccc(C)cc1NCc1cccc(OC)c1OC,,inactive: -16.1%
CC(C)(C)c1ccc(C2C3=C(CCCC3=O)NC3=C2C(=O)c2ccccc23)cc1 (stereo not drawn),"inconclusive: 44.7 µM [inhibitor, single point]",
Cc1ccc(C(=O)NNC(=O)CCC(=O)Nc2cccc(Cl)c2C)cc1,,inactive: 3.75%
COc1ccc(CCC(=O)OCC(=O)c2cccc(OC)c2)cc1,"inconclusive: 0.355 µM [inhibitor, full curve]",
Cn1cnc2c(=O)oc3ccc(S(=O)(=O)N4CCN(c5cccc(Cl)c5)CC4)cc3c21,"inconclusive: 2.82 µM [activator, full curve, poor fit]",
O=C(NCCc1csc(-c2ccc(F)cc2)n1)c1ccc(Br)o1,"inconclusive: 39.8 µM [inhibitor, single point]",
Cc1nc2cc(-c3ccccc3)nn2c(C)c1CCC(=O)N1CCN(c2ccccc2)CC1,"inconclusive: 14.1 µM [inhibitor, partial curve] and inconclusive: 20 µM [inhibitor, partial curve]",
COc1ccc(NC(=O)CSc2nccn2-c2cccc(OC)c2)cc1,"inconclusive: 14.1 µM [inhibitor, partial curve]",
O=C(NC(=S)N(Cc1ccccc1)c1ccccn1)C1CC1,"inconclusive: 39.8 µM [inhibitor, single point]",
COc1cc(OC)cc(-c2nc3nc(C)c(CCC(=O)Nc4cc(F)ccc4F)c(C)n3n2)c1,"inconclusive: 3.55 µM [inhibitor, full curve]",
CN1CCN(c2ccc(C(=O)c3cn(-c4ccc(F)c(Cl)c4)nn3)cc2)CC1,"inconclusive: 11.2 µM [inhibitor, partial curve]",
COc1ccc(N2CC(NC(=O)c3ccc(S(=O)(=O)N4CCCCC4)cc3)CC2=O)cc1OC (stereo not drawn),,inactive: -1.32%
Cc1ccc(S(=O)(=O)NC(C)CCc2ccccc2)cc1 (stereo not drawn),,inactive: -17.9%
COc1ccc(C(OCCN2CCC[C@@H](C(=O)O)C2)(c2ccc(OC)cc2)c2ccc(OC)cc2)cc1,,inactive: -12.8%
Cc1ccc(S(=O)(=O)N/N=C2/CC(c3ccccc3)Oc3ccccc32)cc1[N+](=O)[O-] (stereo not drawn),"inconclusive: 22.4 µM [inhibitor, partial curve]",
Cc1onc(-c2ccccc2Cl)c1C(=O)NCc1cccs1,,inactive: -2.73%
CCC(=O)Nc1nnc(S(=O)(=O)N2CCc3ccccc32)s1,active: 17.8 µM,
COc1ccccc1CC(=O)Nc1ccc(-c2nnc(-c3ccco3)o2)cc1,"inconclusive: 28.2 µM [inhibitor, partial curve]",
CCOc1ccc(N=C2C(=O)N(CN3CCOCC3)c3ccccc32)cc1,"inconclusive: 31.6 µM [inhibitor, single point]",
CC(C)(C)c1ccc(-c2nnc(SCC(=O)Nc3sc4c(c3C#N)CCCC4)o2)cc1,"inconclusive: 15.8 µM [inhibitor, partial curve, poor fit]",
